# Test results from article PMC4336329 (PLoS ONE, 2015).
# Screen size: about 310,000 compounds; about 2,200 (0.71%) showed an effect of 50% or more. Effects have a minus sign here. This is one part of the list.
# Biological target: human ether-à-go-go-related gene (hERG) potassium channel (human, UniProt Q12809)
# Test: primary screen, population patch clamp on CHO cells stably expressing hERG
# Sequence of human ether-à-go-go-related gene (hERG) potassium channel (Q12809 whole entry, looked up): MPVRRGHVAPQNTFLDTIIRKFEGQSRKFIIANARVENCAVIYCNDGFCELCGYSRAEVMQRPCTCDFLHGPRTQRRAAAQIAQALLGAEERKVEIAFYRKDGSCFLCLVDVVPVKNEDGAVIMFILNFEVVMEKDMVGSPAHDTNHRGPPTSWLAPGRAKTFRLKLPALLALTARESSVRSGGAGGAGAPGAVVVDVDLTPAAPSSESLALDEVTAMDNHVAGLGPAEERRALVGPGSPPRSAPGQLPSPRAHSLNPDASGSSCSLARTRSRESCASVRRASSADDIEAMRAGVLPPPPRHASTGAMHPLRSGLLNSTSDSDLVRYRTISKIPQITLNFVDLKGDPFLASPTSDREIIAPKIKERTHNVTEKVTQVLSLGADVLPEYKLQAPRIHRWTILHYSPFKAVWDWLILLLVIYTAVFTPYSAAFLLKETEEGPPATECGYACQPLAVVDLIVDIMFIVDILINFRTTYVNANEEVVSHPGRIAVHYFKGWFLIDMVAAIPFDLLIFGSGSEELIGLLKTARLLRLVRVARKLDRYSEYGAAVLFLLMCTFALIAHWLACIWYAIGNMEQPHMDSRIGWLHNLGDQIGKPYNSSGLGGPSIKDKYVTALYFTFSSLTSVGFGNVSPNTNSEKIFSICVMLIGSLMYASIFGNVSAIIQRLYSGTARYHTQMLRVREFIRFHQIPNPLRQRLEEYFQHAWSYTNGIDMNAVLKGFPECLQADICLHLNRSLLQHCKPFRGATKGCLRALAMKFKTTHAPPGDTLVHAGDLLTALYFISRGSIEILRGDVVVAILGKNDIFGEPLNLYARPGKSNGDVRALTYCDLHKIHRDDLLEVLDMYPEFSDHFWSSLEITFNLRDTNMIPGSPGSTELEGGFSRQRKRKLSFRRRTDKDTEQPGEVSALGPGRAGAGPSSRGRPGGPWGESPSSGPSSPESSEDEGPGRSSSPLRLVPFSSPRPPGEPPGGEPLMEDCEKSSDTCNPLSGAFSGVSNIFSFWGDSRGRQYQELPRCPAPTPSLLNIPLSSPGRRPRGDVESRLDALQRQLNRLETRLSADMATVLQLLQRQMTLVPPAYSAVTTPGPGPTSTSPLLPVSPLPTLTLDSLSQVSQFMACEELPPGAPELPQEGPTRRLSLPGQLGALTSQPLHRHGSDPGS
row,SMILES,"hERG current change (%, negative = inhibition) at 1uM"
1,OCC[C@@H]1C[C@H](O)[C@@H](O)[C@]2(CCCc3ccccc3O2)O1,24.1%
2,CC(Sc1nc2ccccc2n1C)C(=O)NC(c1ccccc1)c1ccccc1 (stereo not drawn),8.92%
3,CC(=O)Oc1cccc(-c2nc3ccccc3c(=O)o2)c1,10.6%
4,CSc1ccccc1NC(=O)Nc1cccc(F)c1,5.9%
5,O=C(CSc1ncc(-c2ccccc2)[nH]1)Nc1ccccc1,-0.253%
6,CCOCc1nnc(NC(=O)c2cccs2)s1,6.37%
7,COc1cc(CNc2ccc(C(=O)O)cc2)cc(Br)c1OCC(=O)NC(C)(C)C,9.4%
8,CCOC(=O)C1C(=O)NC(SC)=C(C#N)C1c1ccccc1F (stereo not drawn),-0.132%
9,CC(C)(CO)NC(=S)NCc1ccco1,5.79%
10,CC(=O)Nc1ccccc1C(=O)C(=O)Nc1cccc(C(=O)N2CC(C)CC(C)C2)c1 (stereo not drawn),2.9%
11,CCOC(=O)c1oc2cc(O)cc(C)c2c(=O)c1-c1cscn1,-6.8%
12,O=C(/C=C/c1cccs1)N1CCN(c2ccc(F)cc2)CC1,4.04%
13,CC1CCCCN1S(=O)(=O)c1cn(C)c(=O)n(C)c1=O (stereo not drawn),-0.331%
14,Cc1ccc(S(=O)(=O)NCC(=O)OC(C)C(=O)NC(=O)NC2CCCCC2)cc1C (stereo not drawn),9.6%
15,O=C(NNC(=O)c1cccs1)c1ccc([N+](=O)[O-])cc1,12.9%
16,Cl.N=C(N)c1ccccc1.O,17.6%
17,O=C(COC(=O)c1ccc(S(=O)(=O)N2CCCC2)cc1)Nc1cccc(Br)c1,-12%
18,O=C(CSc1nnc(-c2ccco2)o1)Nc1c(F)cccc1F,0.413%
19,O=C(Nc1cccc(S(=O)(=O)Nc2ccccc2Cl)c1)c1ccc(N2CCCC2)c([N+](=O)[O-])c1,13.1%
20,CN(Cc1cnn(C)c1)Cc1nc(COc2ccccc2)no1,19.3%
21,CCOC(=O)C1C(c2ccccc2Cl)NC(=O)N(C)C1(O)C(F)(F)F (stereo not drawn),10.1%
22,Cc1cc(C)c2[nH]c(=O)c(CN(Cc3ccccc3)C(=S)NCCCN(C)C)cc2c1,-17.7%
23,N#Cc1c(N)oc(-c2cccs2)c1-c1cccs1,6.43%

row,SMILES,"hERG current change (%, negative = inhibition) at 1uM"
1,CCOC(=O)N1CCN(Cc2nc3cc([N+](=O)[O-])ccc3n2C)CC1,5.08%
2,N=C1/C(=C\c2ccc(SCc3ccccc3)o2)C(=O)N=C2SC(CC(=O)N3CCOCC3)=NN12,2.34%
3,C=CCNC(=O)C1=NOC(CNC(=O)c2c(-c3ccccc3Cl)noc2C)C1 (stereo not drawn),18.3%
4,CC(C)C[NH+]=c1cc(-c2ccccc2)oc2ccc(Cl)cc12.F[B-](F)(F)F,-81.1%
5,C/C(=N\NC(=O)c1ccccc1NC(=O)c1ccc(Cl)cc1)c1ccncc1,10.3%
6,CCOc1ccc(NC(=O)CNS(=O)(=O)c2c(C)cc(C)cc2C)cc1,16.1%
7,COc1cc(C(=O)N2C[C@H]3CC[C@H]2C3)ccc1OC1CCN(C(C)=O)CC1,10.5%
8,COc1ccc(NC(=O)CSc2nc(N)c(NC(=O)c3ccccc3F)c(=O)[nH]2)cc1,5.08%
9,O=C(COC(=O)c1cnc(Cl)c(Cl)c1)NCc1cccs1,6.12%
10,CCOc1ccc(N2CC(C(=O)NCc3nnnn3-c3ccc(C)c(C)c3)CC2=O)cc1 (stereo not drawn),10.2%
11,O=C(Nc1ccc(-c2nc3ccccc3[nH]2)cc1)c1ccc2c(c1)OCO2,9.1%
12,Cc1cc(Cl)ccc1OCC(=O)Nc1ccccc1N1CCOCC1,16.3%
13,O=C(COC(=O)C1=COCCO1)Nc1ccc2c(c1)OCO2,8.46%
14,CCOC(=O)c1ccc(S(=O)(=O)NCC[NH+]2CCOCC2)cc1.[Cl-],27.2%
15,CNc1cccc2c1C(=O)c1ccccc1C2=O,5.62%
16,NS(=O)(=O)c1ccc(NC(=S)Nc2ccc(S(=O)(=O)N3CCCC3)cc2)cc1,13.3%
17,O=C(CSc1nncs1)Nc1ccc2[nH]c(=O)[nH]c2c1,6.04%
18,CCC1(C)SC(N)=NN1C(C)=O (stereo not drawn),9.52%
19,COC(=O)c1sc(NC(=O)c2ccc(OC)cc2OC)nc1C,14.8%
20,O=C(CSc1nnc(-c2ccncc2)o1)Nc1ccccc1Cl,12.8%
21,CN1CCN(c2ccc(S(=O)(=O)N3CCCCC3)cc2NC(=O)Cc2ccccc2F)CC1,2.47%
22,Cc1cccc(NC(=S)N/N=C/c2ccc(Cl)c([N+](=O)[O-])c2)c1,5.81%
